Data as given in PubChem BioAssay AID602393 (Broad Institute, 2012).
Out of some 350,000 compounds screened, about 7,000 (2%) were called active. This list was built around the results that the source calls inconclusive (neither active nor inactive); the mix of calls is not that of the screen. Cut-off read from the data, not from the text of the source: active = activation above about 40%; inconclusive = no clear call, values can overlap the other calls; inactive = below that.

Assay: raisers of Bmi1 knock-in reporter signal – mouse ES cells, Bmi1 luciferase knock-in, single point, esBAF inhibitor project, primary screen (AID 602393);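 note: 0% = median of the plate's neutral control wells and 100% = double that signal; a rise in the Bmi1 reporter signal indicates esBAF inhibition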
Settings: 24 h, at 12.5 µM, stronger effect = higher value, 100% = twice the neutral-well signal

Reporter increase, active:
CCOC(=O)c1sc(-c2ccccc2)cc1N 67.1%
C[C@H](CO)N1C[C@H](C)[C@H](CN(C)Cc2ccncc2)OCCCC[C@H](C)Oc2ccc(NC(=O)Nc3ccc4c(c3)OCO4)cc2C1=O 73%
COCc1cc(C)nc(SCC(=O)Nc2ccc(C)c(C)c2)c1C#N 43.2%
COC(=O)C1CCN(C(=O)C2CCC(=O)N(CCc3cccc(F)c3)C2)CC1 (centres undefined) 52.6%
O=C(NCc1ccccc1)c1cccc(COc2ccccc2Cl)c1 45.3%
CC(CC(=O)c1cccs1)CC(=O)c1cccs1 70%
CSc1cccc(NC(=O)c2cccc3cccnc23)c1 48.1%
COc1cc2c(cc1NC(=O)c1cccnc1)oc1ccccc12 72.3%
COc1ccc(C(=O)c2c3ccc(OC)cc3[n+]([O-])n2Cc2ccc(C(N)=O)cc2)cc1 60.9%
CCCOc1c(Br)cc(C2C3=C(CCCC3=O)N(CC)C3=C2C(=O)CCC3)cc1OC 44.4%
O=C1c2ccccc2/C(=C\c2ccc3[nH]ccc3c2)N1c1ccccc1 45.3%
N/C(=N\C(=S)Nc1ccccc1)c1ccccc1 82.3%
C(=C\c1ccccc1)/C=N/Nc1nc2ccccc2s1 65.8%
O=C(Nc1ccc2c3c(cccc13)CC2)c1ccc(Br)o1 79.4%
O=C(N=C1SCC(=O)N1c1ccccc1)c1ccco1 46.4%
Cc1ccc(-c2csc(N)n2)cc1 43.2%
COCCNC(=O)c1ccc2c3n(nc2c1)-c1ccc(Cl)cc1CO3 63%
Cc1ccc2nc(N3C(=O)C(O)=C(C(=O)c4cc5ccccc5o4)C3c3cccs3)sc2c1 (centres undefined) 44.5%

Reporter increase, inactive:
CC(C)CN(CC(C)C)c1nc(N)c(C#N)c(CC#N)c1C#N -5.31%
CN(C)CCNC(=O)c1ccc(CS(=O)(=O)c2c(Cl)cccc2Cl)o1 -3.52%
COc1cc(/C=C2/C(=O)N(c3ccc([N+](=O)[O-])cc3)N=C2N2CCOCC2)ccc1O 9.43%
C[C@@H]1CN([C@H](C)CO)C(=O)c2cc(NS(=O)(=O)c3ccc(Cl)cc3)ccc2O[C@H]1CN(C)Cc1ccncc1 -0.544%
COc1ccccc1N1CCN(C(=O)c2[nH]c(C(F)(F)F)nc2-c2ccccc2)CC1 -28.2%
COc1ccc(NC(=O)c2cc(-c3ccco3)on2)cc1OC 31.3%
O=C(O)CCSc1ccccn1 3.82%
C[C@@H]1CCCCO[C@@H](CN(C)Cc2ccc3c(c2)OCO3)[C@H](C)CN([C@@H](C)CO)C(=O)c2cc(NC(=O)Cc3ccccc3)ccc2O1 -13.6%
O=C(C[C@@H]1C[C@H]2c3cc(NC(=O)Nc4ccccc4)ccc3O[C@H]2[C@H](CO)O1)NCc1cccnc1 -5.68%
COc1ccc(S(=O)(=O)Nc2cc3c4c(oc3c3ccccc23)CCCC4=O)cc1 -6.17%
CC=Cc1ccc2n(c1=O)C[C@H]1[C@H](CO)[C@@H](C(=O)NCCC)N(Cc3cccc(F)c3)[C@@H]21 (mixture of isomers) 8.41%
COc1ccc2[nH]c3c4c(ccc3c2c1)C(=O)C=CC4=O -25.8%
CCN(CCO)c1nc(SC)nc2c1sc1nc(-c3ccco3)c3c(c12)CCC3 -3.64%
COc1ccc(CNC(=O)COc2cc(O)c3c(c2)OC(C)(C)CC3=O)cc1 8.79%
CN1c2ccc(-c3cccc(F)c3)cc2[C@H]2[C@H](CCN2C(=O)C2CCCC2)[C@@H]1CO 2.05%
CCC(=O)Nc1ccc2c(c1)OC[C@@H](C)N(C(C)=O)C[C@@H](C)[C@@H](OC)CN(C)C2=O 3.33%
OCCOCCNc1ncnc2c1cnn2-c1ccc(Cl)cc1 3.81%
COC(=O)C[C@H]1CC[C@@H]2[C@@H](COc3ccc(NC(=O)Nc4ccc(C#N)cc4)cc3C(=O)N2C)O1 9.04%
C[C@H]1CCCCO[C@@H](CN(C)CC2CCCCC2)[C@@H](C)CN([C@@H](C)CO)C(=O)c2cc(NC(=O)Nc3ccc(F)cc3)ccc2O1 -5.71%
COc1ccc(-c2ccc3n(c2=O)C[C@@H]2[C@@H](CO)[C@H](C(=O)N4CCN(C)CC4)N[C@H]32)cc1 1.42%
Cc1cc(C)cc(NC(=O)C2COc3ccccc3O2)c1 (centres undefined) 8.89%
C[C@@H]1CN([C@H](C)CO)C(=O)c2cccc(NS(=O)(=O)c3cccs3)c2O[C@H]1CN(C)S(=O)(=O)c1ccccc1 0.041%

Reporter increase, inconclusive:
CCOC(=O)c1snc(-c2ccc(F)cc2)c1N 45.1%
C/C(=N\Nc1ccccc1[N+](=O)[O-])c1ccccc1O 31.9%
O=C(/C=C/c1ccccc1[N+](=O)[O-])NCCN1C(=O)S/C(=C\c2ccc(F)cc2)C1=O 65.3%
Cc1ccc2c(c1)C(=O)CC(c1ccc3c(c1)OCCO3)O2 (centres undefined) 41.8%
Cc1cc(C)n2nc(SCc3ccc(F)cc3Cl)nc2n1 40.6%
COc1ccccc1N1CCN(/N=C/c2ccc([N+](=O)[O-])cc2)CC1 41.6%
O=C(NC(=S)Nc1ccc(O)cc1)c1ccccc1Cl 36.3%
O=C(Nc1ccc(F)cc1F)c1cc(-c2ccc3c(c2)OCO3)on1 44%
C/C(=N\NC(=O)c1ccncc1)c1cccc(NC(=O)c2ccc(Cl)s2)c1 40.4%
CC(C)CSc1nsc(N)n1 40.2%
COc1ccc(/C(N)=N/OC(=O)CSc2ccccc2)cc1OC 44.9%
CC(=O)Nc1cccc(-c2nnc(-c3ccccc3)o2)c1 46.8%
C=CCS/C(N)=N\N=C\c1c(O)ccc2ccccc12 24%
CC(C)(C)C(=O)CC(=O)Nc1ccc(Cl)c(N)c1 45.1%
Clc1nc(Nc2ccccc2)nc(Nc2ccccc2)n1 43%
O=C(CN1CCCC1)Nc1ccc(NC(=O)Nc2ccccc2Cl)cc1 40.9%
C/C(=N\NC(=O)c1csc(C)c1C)c1ccc(Cl)s1 42.8%
O=c1c2ccccc2nc2n1CCN2Cc1ccc(Cl)cc1 41.5%
COC(=O)C1(Cc2cc(-c3ccccc3)no2)CCN(C(=O)OC(C)(C)C)CC1 45.5%
CC(=O)N1N=C(c2ccc(C)cc2)OC1c1ccc(C)cc1 (centres undefined) 26.4%
COC(=O)c1ccc(NC(=O)c2ccc3c(c2)OCO3)cc1 42%
CC(=O)c1ccc(NC(=O)c2sc3nc(C)c(C)c(C)c3c2N)cc1 43.5%
Cn1nc(-c2ccccc2)nc1-c1ccccc1 42.6%
CCc1nnc(NC(=O)CSc2ccc(-c3nc4ccccc4[nH]3)cn2)s1 50.6%
CCC(=O)Nc1ccc2c(c1)C(=O)c1ccccc1C2=O 46.1%
COc1ccc(C(=O)CN2C(=O)NC3(CCCCCC3)C2=O)c(OC)c1 41.9%
COc1ccc(NC(=S)N2CCC(c3ccccc3)C2)cc1 (centres undefined) 24.6%
COC(=O)c1cc(-c2ccc(OC)cc2)n[nH]1 54.3%
CCc1ccc2nc(N(CCN(C)C)C(=O)c3ccc4ncsc4c3)sc2c1 40.9%
O=C(Nc1ccc(C(=O)Nc2ccccc2Cl)cc1)c1cccnc1 41.9%
COc1ccc(-c2nc3c(n2O)CCc2c-3no[n+]2[O-])cc1 67.1%
c1ccc(COc2ccc(CNCc3cccnc3)cc2)cc1 42.9%
CCOC(=O)c1ccc(NC(=O)C2CCCO2)cc1 (centres undefined) 41.6%
COc1ccc(C(O)c2nc(-c3ccc(N(C)C)cc3)cs2)cc1 (centres undefined) 41.8%
Cc1ccc(Cc2c(-c3ccc(C)cc3)nc3ccc(Br)cn23)cc1 45.8%
O=S(=O)(NN=Cc1ccc(O)cc1O)c1cc(Cl)c(Cl)cc1Cl 41.2%
CC(C)CC(=O)Nc1nnc(-c2ccco2)s1 40.1%
C=CCN(c1ccccc1)S(=O)(=O)c1cccc(C(=O)Nc2cc(C)ccn2)c1 44.3%
Cc1ccccc1Nc1nc(NCc2ccco2)c2ccccc2n1 54.9%
CN(c1ccc(C(=O)N2CCc3ccccc3C2)cc1)S(C)(=O)=O 41.3%
Cc1cc(C)n2nc(-c3cccc(Br)c3)cc2n1 40.4%
O=C(Nc1ccc(Nc2ccccc2)cc1)c1ccco1 40.5%
Cc1ccc(CSCC(=O)N2CCCC2)cc1 73.4%
COc1ccc(Cc2n[nH]c(=S)n2NC(=O)Nc2ccc(C)cc2)cc1 41%
Cc1ccc(C(=O)NC(=S)NCC2CCCO2)cc1 (centres undefined) 46.3%
Cn1/c(=N\NC(=O)c2ccccc2Cl)sc2ccccc21 42.2%
CC(=O)Nc1cc2oc3ccccc3c2cc1[N+](=O)[O-] 40.1%
Cc1ccccc1CN1CCN(c2nc3ccccc3s2)CC1 36.8%
C[C@H]1CN([C@@H](C)CO)C(=O)c2cccc(NS(=O)(=O)c3ccccc3)c2O[C@H]1CN(C)C(=O)Nc1ccc2c(c1)OCO2 44.2%
